Assay results as given in the supplement of paper PMC12582362.
Structures can show the parent of a compound that is named as a salt. About 30 (2%) of roughly 1,500 compounds showed activity.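 The calls were made as follows: active = robust z-score below -2; a few such results were not called.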 This is one part of the list.

These compounds were tested on optoTopBP1 Flp-In 293 T-REx (HEK293) cells (assay: light-induced TopBP1 condensate (nuclear foci) count, plate-normalised robust z-score vs non-control wells; higher = more TopBP1 condensates (negative = condensation inhibitor), active = hit call of the paper). Details: 10 µM; incubation time 2 h.

Row | Compound | light-induced TopBP1 condensate (z-score)
1 | CCCNCC(O)COc1ccccc1C(=O)CCc1ccccc1 (configuration not stated) [Propafenone hydrochloride] | inactive: 0.972
2 | COc1ccccc1OCC(O)CN1CCN(CC(=O)Nc2c(C)cccc2C)CC1 (configuration not stated) [Ranolazine] | inactive: 0.709
3 | COc1cc([C@@H]2c3cc4c(cc3[C@@H](O[C@@H]3O[C@@H]5CO[C@@H](C)O[C@H]5[C@H](O)[C@H]3O)[C@H]3COC(=O)[C@H]23)OCO4)cc(OC)c1O [Etoposide] | inactive: 2.81
4 | COc1ccc(C2CNC(=O)C2)cc1OC1CCCC1 (configuration not stated) [Rolipram] | inactive: -0.415
5 | Cc1c(O)c(=O)ccn1C [Deferiprone] | inactive: 0.183
6 | O=S(=O)(O)c1cc(O)ccc1O [Ethamsylate] | inactive: 1.5
7 | c1ccc([C@H]2CN3CCSC3=N2)cc1 [Levamisole hydrochloride] | inactive: 0.197
8 | CCC(=O)O[C@]1(C(=O)CCl)[C@@H](C)C[C@H]2[C@@H]3CCC4=CC(=O)C=C[C@]4(C)[C@@]3(F)[C@@H](O)C[C@@]21C [Clobetasol propionate] | inactive: 0.783
9 | CC(C)[C@H](N)C(=O)OCC(CO)OCn1cnc2c(=O)nc(N)[nH]c21 (some centres not stated) [Valganciclovir hydrochloride] | inactive: 0.111
10 | O=C1OCCN1/N=C/c1ccc([N+](=O)[O-])o1 [Furazolidone] | inactive: -0.718
11 | CCOC(=O)[C@H](CCc1ccccc1)N[C@H]1CS[C@H](c2cccs2)CN(CC(=O)O)C1=O [Temocapril] | inactive: 0.131
12 | CCOCC(O)COc1ccc(NC(=O)CC[S+](C)C)cc1 (configuration not stated) [Suplatast Tosylate] | inactive: 0.0275
13 | O=C(NCC(O)CO)c1c(I)c(C(=O)NCC(O)CO)c(I)c(N(CCO)C(=O)CO)c1I (configuration not stated) [Ioversol] | inactive: -0.193
14 | CO/N=C(\C(=O)N[C@@H]1C(=O)N2C(C(=O)O)=C(COC(N)=O)CS[C@H]12)c1ccco1 [Cefuroxime sodium salt] | inactive: 0.693
15 | Nc1ccc(S(=O)(=O)Nc2ccnn2-c2ccccc2)cc1 [Sulfaphenazole] | inactive: 0.611
16 | CCC(=O)c1c(O)cc(O)cc1O [Flopropione] | inactive: 0.298
17 | CC1Cc2ccccc2N1NC(=O)c1ccc(Cl)c(S(N)(=O)=O)c1 (configuration not stated) [Indapamide] | inactive: -0.829
18 | Nc1ccc2cc3ccc(N)cc3nc2c1 [Proflavine hemisulfate] | active: -6.85
19 | Cc1cc(CC(=O)O)n(C)c1C(=O)c1ccc(Cl)cc1 [Zomepirac sodium salt] | inactive: 0.572
20 | CC[C@H]1OC(=O)[C@H](C)[C@@H](O[C@H]2C[C@@](C)(OC)[C@@H](O)[C@H](C)O2)[C@H](C)[C@@H](O[C@@H]2O[C@H](C)C[C@H](N(C)C)[C@H]2O)[C@](C)(O)C[C@@H](C)[C@@H]2N[C@@H](COCCOC)O[C@H]([C@H]2C)[C@]1(C)O [Dirithromycin] | inactive: -0.572
21 | O=C1CC2(CCCC2)CC(=O)N1CCCCN1CCN(c2ncccn2)CC1 [Buspirone hydrochloride] | inactive: 0.0908

Row | Compound | light-induced TopBP1 condensate (z-score)
22 | Cn1cc([S+](C)[O-])c(=O)c2ccc(F)cc21 (configuration not stated) [Flosequinan] | inactive: 0.501
23 | C[C@H](O)C(=O)Nc1c(I)c(C(=O)NC(CO)CO)c(I)c(C(=O)NC(CO)CO)c1I [Iopamidol] | inactive: -0.464
24 | CC(C)CC(=O)N[C@H](C(=O)N[C@H](C(=O)N[C@@H](CC(C)C)[C@@H](O)CC(=O)N[C@@H](C)C(=O)N[C@@H](CC(C)C)[C@@H](O)CC(=O)O)C(C)C)C(C)C [Pepstatin A] | inactive: 0.721
25 | Oc1ccc(OCc2ccccc2)cc1 [Monobenzone] | active: -2.29
26 | C[C@H]1C[C@H]2[C@@H]3CCC4=CC(=O)C=C[C@]4(C)[C@@]3(F)[C@@H](O)C[C@]2(C)[C@@]1(O)C(=O)CO [Betamethasone] | inactive: 1.46
27 | CCCNC(C)(C)C(=O)Nc1ccccc1C [Quatacaine] | inactive: -0.106
28 | O=C(NCCO[N+](=O)[O-])c1cccnc1 [Nicorandil] | inactive: 0.468
29 | Cc1ccc(Cl)c(Nc2ccccc2C(=O)O)c1Cl [Meclofenamic acid sodium salt monohydrate] | inactive: -0.393
30 | C=C1/C(=C\C=C2/CCC[C@]3(C)[C@@H]([C@H](C)/C=C/[C@@H](O)C4CC4)CC[C@@H]23)C[C@@H](O)C[C@@H]1O [Calcipotriene] | inactive: -0.251
31 | COC(=O)Nc1nc2ccc(SC(C)C)cc2[nH]1 [Methiazole] | inactive: -1.27
32 | CN(C)CCOc1ccc(/C(=C(/CCCl)c2ccccc2)c2ccccc2)cc1 [Toremifene] | inactive: -1.41
33 | CCN1CCN(C(=O)N[C@@H](C(=O)N[C@@H]2C(=O)N3C(C(=O)O)=C(CSc4nnnn4C)CS[C@H]23)c2ccc(O)cc2)C(=O)C1=O [Cefoperazone dihydrate] | inactive: 0.148
34 | CC(NN)c1ccccc1 (configuration not stated) [Mebanazine] | inactive: 0.298
35 | CC(C(=O)O)c1ccc(N2Cc3ccccc3C2=O)cc1 (configuration not stated) [Indoprofen] | inactive: 0.0765
36 | CO[C@@]12[C@H](COC(N)=O)C3=C(C(=O)C(C)=C(N)C3=O)N1C[C@@H]1N[C@@H]12 [Mitomycin C] | inactive: -0.867
37 | CC1=Nc2ccc(Cl)cc2S(=O)(=O)N1 [Diazoxide] | inactive: 0.359
38 | Cc1cc(/C=C/c2ccc3cc(N(C)C)ccc3[n+]2C)c(C)n1-c1ccccc1 [Pyrvinium pamoate] | active: -4.74
39 | COCCOC(=O)C1=C(C)NC(C)=C(C(=O)OC/C=C/c2ccccc2)C1c1cccc([N+](=O)[O-])c1 (configuration not stated) [Cilnidipine] | inactive: 0.508
40 | CCCCNc1ccc(C(=O)OCCOCCOCCOCCOCCOCCOCCOCCOCCOC)cc1 [Benzonatate] | inactive: 0.771
41 | O=C(O)/C=C/c1ccc(Cn2ccnc2)cc1 [Ozagrel hydrochloride] | inactive: 0.593
42 | CCCc1nc(C)c2c(=O)nc(-c3cc(S(=O)(=O)N4CCN(CC)CC4)ccc3OCC)[nH]n12 [Vardenafil] | inactive: 0.348
